# The campaign covered roughly 340,000 compounds. About 6,900 (2%) were called active. No stated cut-off is given here; in the data, active means inhibition above about 30%; inactive means below that, where a call was filed. This is a selection; strong and weak results do not stand in their true shares. Where no call is shown, the source filed none.
# Molecular target: D(2) dopamine receptor (Homo sapiens) (UniProt P14416)
# Experiment: HTS Assay for Allosteric Antagonists of the Human D2 Dopamine Receptor: Primary Screen for Antagonists; further: 0% is about no effect
# Conditions: HEK293 TREx D2 cells, calcium flux, dopamine EC80; at 10 µM; stronger effect = higher value
# In short: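 Compounds are added to dye-loaded, induced HEK293 T-REx cells coupled to calcium release via D2; after a 3 min kinetic read an EC80 dopamine stimulus is given and fluorescence is recorded for 3 more min.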
# Chain of UniProt P14416 (P14416 whole entry, looked up): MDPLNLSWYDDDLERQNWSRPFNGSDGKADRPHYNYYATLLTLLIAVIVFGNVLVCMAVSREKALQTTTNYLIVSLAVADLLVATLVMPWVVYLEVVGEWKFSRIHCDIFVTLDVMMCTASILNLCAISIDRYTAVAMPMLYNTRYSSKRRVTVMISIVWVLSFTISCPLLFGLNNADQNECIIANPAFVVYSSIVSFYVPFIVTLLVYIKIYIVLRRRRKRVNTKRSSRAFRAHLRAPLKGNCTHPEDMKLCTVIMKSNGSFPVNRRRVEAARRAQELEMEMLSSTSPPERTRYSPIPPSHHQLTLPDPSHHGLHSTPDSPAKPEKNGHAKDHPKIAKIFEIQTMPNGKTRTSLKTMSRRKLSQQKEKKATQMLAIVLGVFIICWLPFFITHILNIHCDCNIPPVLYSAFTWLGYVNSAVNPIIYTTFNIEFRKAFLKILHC
row,Compound,inhibition
1,CCOC(=O)c1sc(NC(=O)Nc2ccc(Cl)cc2)cc1C,active: 38%
2,COc1ccc(OCCCn2c(C)nc3cc(C)c(C)cc32)cc1,6.99%
3,Cc1oc(-c2ccccc2F)nc1CS(=O)(=O)CC(=O)NCCCN1CC(C)CC(C)C1 (configuration not stated),active: 47.8%
4,COc1cccc2c1cc1c(=O)n(CC(=O)NCCCN3CCN(C)CC3)nc(C)n12,7.79%
5,CCC1=C(c2ccc(C)cc2)S(=O)(=O)N=C1N1CCC(C(=O)NCCc2cccc(OC)c2)CC1,12.6%
6,Cn1nnnc1SCCCNCc1cc(Cl)ccc1OCc1ccccc1,9.67%
7,CC(OC(=O)c1ccc(NC(=O)CC#N)cc1)C(=O)NCCC1=CCCCC1 (configuration not stated),active: 38.3%
8,O=C1Nc2c(c(=O)[nH]c(=O)n2-c2ccc(F)cc2)C1(NS(=O)(=O)c1ccc(Cl)cc1)C(F)(F)F (configuration not stated),-14.5%
9,COc1ccc(C2=Nc3ccccc3N(CC(=O)Nc3cccc(C(C)=O)c3)C(=O)C2)cc1,8.77%
10,COc1ccc(CNS(=O)(=O)c2csc(C(N)=O)c2)cc1OC,-3.64%
11,Cc1cn2c(=O)cc(COC(=O)c3ccc(NC(=O)c4ccc(C(C)(C)C)cc4)cc3)nc2s1,-6.27%
12,CCOC(=O)c1ccc(NC(=O)C(CC)Sc2nncn3c2cc2oc(C)cc23)cc1 (configuration not stated),8.21%
13,CCC(C)c1ccccc1NC(=O)COC(=O)c1ccc2[nH]c3c(c2c1)CCCC3 (configuration not stated),active: 70.5%
14,O=C(N/N=C/C(Br)=C/c1ccccc1)c1ccc([N+](=O)[O-])cc1,active: 39.1%
15,CCCCNc1nc2c(-c3cccc(Br)c3)nnn2c2ccccc12,-20.1%
16,CC1CCCCC1NC(=O)CO/N=C/c1ccc(OC(F)F)cc1 (configuration not stated),active: 34.1%
17,COc1cc([N+](=O)[O-])ccc1NC(=O)N1CCC2(CC1)Nc1cc(F)ccc1-n1cccc12,28.4%
18,CC1CCN(c2nc3c(S(=O)(=O)c4cccc(Cl)c4)nnn3c3ccsc23)CC1,-5.32%
19,Cc1ccc(N2CCN(C(=O)CCS(=O)(=O)c3cc4c(cc3Cl)NC(=O)CO4)CC2)c(C)c1,16.7%
20,Cc1ccc(C2C(=O)N(C3CCCCCC3)CC(=O)N2CCC2=CCCCC2)cc1 (configuration not stated),15.1%
21,CCOC(=O)c1c(-c2ccc(OC)cc2)oc2ccc(OCc3ccc(F)cc3F)cc12,-8.02%
22,CN(C)c1ccc(CNC(=O)C2CCN(C(=O)c3ccc(-n4ccc5ccccc54)s3)CC2)cc1,-14.7%
23,Cc1ccc(NC(=O)N2CCC(CN3CCCCC3)CC2)c(Cl)c1,15.2%
24,CCOC(=O)c1cc(-c2ccc(OC)cc2)n(CCC(=O)NCCc2ccc(OCC)c(OCC)c2)c1C,-6.14%
25,CCn1cc(/C=C(\NC(=O)c2ccc(OC)c(OC)c2)C(=O)NCCCn2ccnc2)c2ccccc21,-1.22%

row,Compound,inhibition
1,Cc1nc2sccn2c(=O)c1S(=O)(=O)Nc1cccc(Cl)c1C,10.8%
2,CCCc1cc(=O)n2nc(N3CCC(C(=O)Nc4c(F)c(F)c(F)c(F)c4F)CC3)sc2n1,active: 37.5%
3,CC(=O)c1ccc(N2CCN(S(=O)(=O)c3ccc(-c4cnc(C5CC5)o4)cc3)CC2)cc1,16.4%
4,Cc1ccc(OCC(=O)Nc2ccc(C(=O)OCc3cc(=O)n4ccsc4n3)cc2)cc1C,-5.62%
5,COc1ccc(Oc2ncnc3c2oc2ccccc23)cc1,-11.8%
6,CCOC(=O)c1ccc(NC(=O)C2CCCN(c3cnccn3)C2)cc1 (configuration not stated),9.78%
7,O=C(COC(=O)c1ccc([N+](=O)[O-])o1)NC1CCS(=O)(=O)C1 (configuration not stated),active: 33.4%
8,CC(=O)N1c2ccccc2CC1C(=O)N1CCN(c2ccccc2F)CC1 (configuration not stated),2.74%
9,CCOC(=O)C1=C(CNCc2ccc(Cl)cc2)NC(=O)NC1c1ccccc1 (configuration not stated),-16.8%
10,COc1cc(NC(=O)Cn2cc(S(=O)(=O)N3CCC(C)CC3)c3ccccc3c2=O)cc(OC)c1OC,7.75%
11,CCCC(C(=O)Nc1cc(C)c(Cl)cc1OC)N1Cc2ccccc2C1=O (configuration not stated),1.52%
12,COc1cccc(/C=C(\C#N)c2nc3ccccc3c(=O)[nH]2)c1OC,13.9%
13,CCOc1ccc(Nc2ncnc3onc(-c4ccc(Cl)cc4)c23)cc1,-9.36%
14,Cc1ccc(OCC(O)CN2CCN(c3ccccn3)CC2)c(C)c1 (configuration not stated),active: 64.5%
15,COc1cn(CC(=O)Nc2cccc(C)c2)c(CN2CCCCC2)cc1=O,-13.4%
16,O=C1NC2(CCOc3ccccc32)C(=O)N1CC(=O)N(Cc1ccccc1)C1CCS(=O)(=O)C1 (configuration not stated),active: 40.4%
17,Cc1ccc(Cl)c(OCCN2CCCC(C)C2)c1 (configuration not stated),active: 53.1%
18,Fc1cccc2sc(Nc3nnc(-c4ccccc4)o3)nc12,active: 43.1%
19,Cc1cc(C)cc(OC(C)C(=O)Nc2nc3c(s2)CCCC3)c1 (configuration not stated),16.9%
20,COc1ccc(NC(=O)c2ccco2)cc1NC(=O)c1ccc(OC(C)C)cc1,16.9%
21,O=C(CSc1nc2ccccc2n1Cc1ccccc1)NCc1ccccc1,-13.5%
22,CC(C)CC(NC(=O)C1CCC(C)CC1)C(=O)OCC(=O)c1ccc(Cl)cc1 (configuration not stated),11.8%
23,CSc1oc(-c2ccc(F)cc2)nc1S(=O)(=O)c1ccc(Br)cc1,-4.61%
24,O=C(N/N=C/c1ccsc1)c1ccccn1,active: 39.1%
25,Cc1cccc(C)c1NC(=S)NCCc1ccc(O)c(O)c1,active: 67.3%

row,Compound,inhibition
1,Cc1ccc(N2CC(NC(=O)C3CCCC3)CC2=O)cc1 (configuration not stated),4.11%
2,CC(C)CCNC(=O)c1ccc(NC(=O)N2CCCCc3ccccc32)cc1,14.8%
3,COc1cccc(N2CCN(C(=O)Cn3ncc4c3-c3ccccc3OC4)CC2)c1,9.25%
4,Cc1ccc(C(=O)c2cn(CC(=O)Nc3ccc4c(c3)OCCO4)c3nc(C)ccc3c2=O)cc1,-2.66%
5,CCOc1ccc(Nc2c(S(=O)(=O)c3ccccc3)cnc3ccc(CC)cc23)cc1,-20.2%
6,CCC1COCCS(=O)(=O)N1Cc1cccc(Cl)c1 (configuration not stated),active: 47.1%
7,CCCCNC(=O)CSc1nc2ccccc2nc1Cc1ccccc1,15.6%
8,Cc1cccc(NC(=O)CCS(=O)(=O)c2cc(Br)cc3c2N(C(=O)C2CC2)CC3)c1C,7.33%
9,CCCNC(=O)Cn1nc(C)c2c(C)n(-c3ccccc3)nc2c1=O,-19.4%
10,CC1=C(C(=O)Nc2cccnc2)C(c2ccc(F)cc2)n2nc(SCc3ccccc3)nc2N1 (configuration not stated),2.42%
11,CC1CCN(S(=O)(=O)c2cccc(C(=O)N(C)C3(C)CCS(=O)(=O)C3)c2)CC1 (configuration not stated),-20.3%
12,COc1cc(OC)c(NC(=O)CSc2nc3ccncc3[nH]2)cc1Cl,13.6%
13,CC(NC(=O)C1CCN(C(=O)N2CCOc3ccccc32)CC1)c1ccccc1 (configuration not stated),24.1%
14,COc1cc(C2Oc3nc(SC)nnc3-c3ccccc3N2C(C)=O)cc(Cl)c1OC (configuration not stated),-11.5%
15,Cc1cc(Br)ccc1NC(=O)c1sc2ncn(Cc3ccccc3Cl)c(=O)c2c1C,-10.2%
16,Cc1ccc(-n2ncc3c(NCc4ccccc4)ncnc32)cc1C,0.516%
17,O=C(CSc1oc(-c2ccco2)nc1S(=O)(=O)c1ccc(Br)cc1)c1ccc(Cl)cc1,5.99%
18,CCc1cc2c(cc3c(=O)n(CC(=O)NCCCN4CCCCCC4)nc(CC)n32)s1,active: 32.6%
19,COc1ccc(C(=O)N2CCN(S(=O)(=O)c3ccc(F)cc3)CC2)cc1OC,active: 39.1%
20,COC(=O)C1CCN(c2csc3ccc(C)cc3c2=O)CC1,4.4%
21,Cc1ccc(C)c(NC(=O)CN(Cc2ccccc2)S(=O)(=O)c2ccc3nc(C)sc3c2)c1,21%
22,CCN(CC)c1ccc(-c2nc(-c3ccccn3)no2)cc1[N+](=O)[O-],-3.85%
23,CN1c2ccccc2-c2nc(SCC(=O)Nc3ccccc3)ncc2S1(=O)=O,-9.92%
24,CSc1cccc(NC(=O)c2ccc3c(c2)CCCN3S(C)(=O)=O)c1,0.244%
25,Cc1ccc(S(=O)(=O)Nc2ccc3c(c2)nc(CCN2CCCC2)n3C)cc1,active: 39.5%

row,Compound,inhibition
1,COc1ccc(NC(=O)c2ccc3[nH]c(C)cc(=O)c3c2)cc1,12.3%
2,CCCCCCn1c(/C=C/c2ccccc2)nc2ccccc21,22.1%
3,Cc1ccc(/C=C/C(=O)Nc2ccc(Cl)cc2Cl)cc1,-14.6%
4,Cc1ccc(NC(=O)Cc2coc3c(C)c(C)ccc23)c(C)c1,20.5%
5,Cc1ccc(-n2cc(C(=O)OCc3ccc(Cl)cc3)c3ccccc3c2=O)cc1,-15.9%
6,CCN1C(=O)c2ccccc2S(=O)(=O)c2ccc(C(=O)NCc3ccc(F)cc3)cc21,8.27%
7,Cc1ccc(CNC(=O)CN2C(=O)COc3ccc(S(=O)(=O)N4CCC(C)CC4)cc32)cc1,-0.775%
8,COc1ccc(NC(=O)c2ccc(-c3cccc(Cl)c3C)o2)cc1,-3.74%
9,COc1ccc(-c2[nH]c(-c3ccccc3)nc2SCC(=O)Nc2ccc3c(c2)OCO3)cc1,-2.91%
10,CCn1c(CN2CCCCC2)nc2cc(NC(=O)COc3ccc([N+](=O)[O-])cc3)ccc21,-17.5%
11,COc1ccc(-c2nc(CSc3nc4ncccc4[nH]3)c(C)o2)cc1OC,-4.05%
12,CC(NC(=O)Cc1ccc(NC(=O)N2CCCCc3ccccc32)cc1)c1ccccc1 (configuration not stated),-5.34%
13,CC(NC(=O)c1ccc(N2Cc3ccccc3Oc3ncccc32)s1)c1ccccc1 (configuration not stated),-3.47%
14,Cc1ccc(/C=C/c2onc(C)c2S(=O)(=O)N2CCC(C(=O)NCc3ccc(Cl)cc3)CC2)cc1,-4.31%
15,O=C(NCCc1ccc(Cl)cc1)c1ccc2c(c1)N(Cc1ccc(F)cc1Cl)C(=O)CS2,-2.35%
16,CCOC(=O)C(C)NC(=O)c1cc2c(=O)[nH]c3ccc(C)cc3c2s1 (configuration not stated),-0.751%
17,Cc1c(Cl)cccc1NC(=O)C(=O)NCCc1csc(-c2cccc(F)c2)n1,-22.3%
18,O=C(CN1CCN(c2ccccn2)CC1)Nc1cccc(C(F)(F)F)c1,active: 48.2%
19,Cc1ccc(C(C)C)c(OCC(=O)Nc2c(C(=O)c3ccc(F)cc3)oc3ccccc23)c1,5.91%
20,Cc1cc(O)c(C(c2ccccc2Cl)N2CCCCC2)c(=O)n1Cc1ccco1 (configuration not stated),6.28%
21,COc1cc(OC)c(C2C=C(c3ccc(C)cc3)Nc3c(C(=O)Nc4ccccc4)cnn32)cc1OC (configuration not stated),-4.23%
22,CCc1ccc(C2N3CC4(C)CN2CC(c2ccccc2)(C3)C4=O)cc1 (configuration not stated),4.13%
